# From the supplement of paper PMC3334620
# Over roughly 33,000 sequences, “E-score (-0.5 to 0.5)” has its median near -0.016; the highest 2% begin near 0.31. This is one part of the list.
# Target: Cst6 (UniProt P40535)
# Assay: PBM E-score (8-mer binding enrichment) (E-score (-0.5 to 0.5)); higher = stronger / more preferred TF binding; most listed sequences are background and not binding sites
# Conditions: protein concentration: 200 nM; construct: GST-DNA-binding domain
# Procedure, shortened: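 Each ungapped eight-base word and its reverse complement, pooled, received an E-score from the Universal PBM Analysis Suite. Underlying scans, normalised with masliner, recorded fluorescent anti-GST bound to GST-tagged yeast transcription factors. These were applied at about 100-200 nM to universal all-10-mer Agilent arrays double-stranded by primer extension.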
row,Sequence,PBM E-score
1,ACGCAGAT,-0.0398
2,ATGAATAA,0.0436
3,GACGGACC,-0.0349
4,AGGGAACT,-0.298
5,GCTATGGA,-0.167
6,AAGAAAAG,0.155
7,TCGTACAA,0.169
8,CCAAGCCA,-0.19
9,GAAGGCCA,-0.209
10,AATAACAA,0.228
11,CACTACTG,0.00362
12,TCGACACA,0.108
13,ATAGAGTA,0.151
14,GGTGCGAA,-0.093
15,ACAAGCCG,-0.029
16,GAACACGA,-0.0372
17,GGTTCAAC,-0.0915
18,AAGATAGT,0.0932
19,CCCAGATA,-0.15
20,ATTGACCG,0.0831
21,ATCTTATA,0.152
22,ACCATTCA,0.127
23,CAACGCGG,0.147
24,ACAGCCGC,0.0813
25,ACTTTGTC,0.0198

row,Sequence,PBM E-score
1,CCAGCTCA,-0.146
2,GGGGCGTA,-0.114
3,CACTACCG,-0.223
4,CCGGCTGA,-0.207
5,TGGCTACA,0.0815
6,CAAACAAA,0.114
7,AAGGGAGA,-0.17
8,CACCTTGC,0.0146
9,GCTGCATA,0.165
10,GATCATGA,0.247
11,CTCATCAC,0.146
12,AGCTTTCA,-0.0848
13,ACCCCGAT,-0.157
14,AATGGCCA,-0.265
15,AGCGTCGA,0.111
16,CAAACAGC,0.0663
17,GGTTGGAC,-0.239
18,CGACGGTC,-0.169
19,AAGTGCTA,-0.0558
20,TCCACTAA,-0.0375
21,ACTCCTAA,0.0155
22,ATAACATA,0.264
23,ACTGCGTA,-0.114
24,CGCCCGAG,-0.242
25,CTGGGTAA,-0.0796

row,Sequence,PBM E-score
1,AAGGGCCA,-0.237
2,CGCGCAAA,0.174
3,GAAACTAA,0.067
4,GCTATGAA,0.0103
5,AACACAAT,0.21
6,ATTGTACG,0.129
7,GTCCAGTA,-0.19
8,ATCGGGTG,0.0966
9,CTGCCCCA,-0.224
10,ATACACGC,0.0455
11,AATCCGCA,-0.0116
12,AAGGTATC,-0.0653
13,CTGGCGTA,-0.193
14,CTATGGTC,-0.155
15,AATGTGCT,0.0677
16,TCCGGTCA,-0.15
17,ACGCTTTC,-0.0857
18,CTGGCATC,-0.199
19,AGGGCCTA,-0.327
20,CTGGCCTC,-0.2
21,CCTCTAAG,-0.173
22,GGGCGTAA,-0.0156
23,GACTTCTA,-0.23
24,AGGCAGAC,-0.207
25,ACTCGACT,-0.251

row,Sequence,PBM E-score
1,CCTGAACA,-0.0247
2,GAGCCCAC,-0.346
3,ACGGTGGA,-0.31
4,CCTAAGTC,-0.231
5,AGTGAAAT,0.0683
6,CGGGGGAC,-0.363
7,CAAAGTAG,-0.0768
8,AATCTCCA,-0.0897
9,ACTATAGG,-0.191
10,ACTTCACC,0.186
11,AGCTTATA,-0.00669
12,CCCTGAGC,-0.0998
13,CATTGGAA,0.144
14,ACCATCAG,-0.192
15,CCATATTA,0.0718
16,GAGATAGA,-0.0453
17,TCCATGGA,0.0704
18,GGCCTCTA,-0.279
19,TAGTGTAA,0.14
20,TATGCCCA,-0.189
21,AAATGCAC,-0.0406
22,ATCAAGTG,0.0496
23,AAGGAAGA,-0.116
24,ACCTGCTG,0.0382
25,AAACCCGA,0.149

row,Sequence,PBM E-score
1,AGGCATGC,-0.0314
2,CCCATGTA,-0.0602
3,CGCGAGAC,-0.0561
4,AGGAGTTC,-0.272
5,AACTTCAG,-0.0247
6,GGTTGAAA,0.0161
7,AAGTGTAC,-0.0327
8,GTGATTGA,0.171
9,CGCAAACC,0.00084
10,CCAAATTC,-0.0587
11,ATTGTAGG,0.119
12,CCCTGGAG,-0.222
13,AGGGGACA,-0.191
14,CTATATTA,0.333
15,ATGACCCA,0.0852
16,CCCATAGC,-0.342
17,CCTACCTC,-0.314
18,GTCGGGAA,-0.156
19,CCCCCGTA,-0.317
20,CTACTGAA,0.114
21,TACTTCAA,0.176
22,CGGGCAAG,-0.208
23,CAACGTAA,0.329
24,ATAATTGC,0.105
25,CGATAAGA,0.0238

row,Sequence,PBM E-score
1,CGTCTGAG,0.00936
2,GGTGGCAA,-0.248
3,AGAGTTGG,-0.0839
4,CAAGGTAC,-0.0891
5,CATGTCTC,-0.11
6,CGTTCATC,0.054
7,ATACGTAC,0.198
8,ATTACAGA,0.187
9,AAGAAGTG,0.0573
10,CGCTAACA,0.0299
11,TCTTGCAA,0.105
12,ATATTTTA,0.233
13,CGAGTATA,0.0251
14,ACATATGC,-0.158
15,CCCAGGGA,-0.37
16,CGAAATCC,0.00971
17,TGGAGTAA,0.168
18,AACAGCCT,-0.126
19,ATCCTGAC,0.0527
20,GCCACCGA,-0.104
21,AGACCGAC,-0.12
22,AGCACTGA,-0.029
23,ACGTTATC,0.269
24,ACAAGCCC,-0.13
25,CCGGACCA,-0.206

row,Sequence,PBM E-score
1,ACTTGCGA,-0.0637
2,AAGTATAT,0.17
3,ATGGCGTC,0.311
4,AGCTTCCG,-0.0727
5,CCATGTCG,-0.0363
6,CGAATTAA,0.136
7,AAACGTGC,0.143
8,CCCATAAC,-0.065
9,AGTTTATA,0.22
10,ATCAGTAG,0.00344
11,ATCCGACC,-0.0828
12,ACTGCGCA,-0.101
13,AATTACTG,0.0926
14,ACCCCATC,-0.154
15,ACAGTTGA,-0.125
16,CATGGACC,-0.233
17,AGGTAAAG,0.122
18,CCTTGGAC,-0.23
19,CTTAGTGC,-0.0727
20,GGGGACAC,-0.323
21,AGCAAGCG,-0.11
22,GGCAGCCC,-0.402
23,CCATGTCA,0.134
24,GAAGGCAC,0.149
25,CCTGAACC,0.00416

row,Sequence,PBM E-score
1,GTATACAC,0.0838
2,AGCCGGAG,-0.0357
3,AGGATCGA,-0.182
4,ACAGGCAT,-0.0588
5,CCCGCTTC,-0.386
6,GTTAAAAA,0.22
7,ATCAATTC,0.101
8,ACCAGCCT,-0.213
9,GCTTGTCC,-0.157
10,CCAGCGAG,-0.21
11,CTTGGAAA,-0.0382
12,AGGAGGAT,-0.153
13,CACCGGGC,-0.265
14,GGGGGTGA,-0.16
15,AACCCACT,0.00057
16,AAGCCTAC,-0.0426
17,GTGTCCGA,-0.0583
18,AAGACCTT,0.0815
19,ATTCCGTC,0.159
20,TGTCCAAA,0.129
21,GTTGCGCA,-0.153
22,AGCTGGGA,-0.266
23,CACAGCCA,-0.00605
24,AGGCCGTC,-0.129
25,GAGTACCC,-0.275

row,Sequence,PBM E-score
1,CGCCCAGC,-0.0744
2,GCGTAGGA,-0.2
3,CTGAACAC,0.178
4,AGCCATCC,-0.139
5,AGGTATAG,-0.151
6,CACGACCA,-0.00602
7,CTACCTGC,-0.173
8,ATCCGAGA,-0.0313
9,GGCCTAAA,-0.148
10,ACAGACAG,0.0695
11,ACCAGTGG,-0.059
12,ACTGTCGA,-0.0803
13,GACGTCGA,0.292
14,ATCCTTTC,-0.0433
15,GGCGGGGA,0.0792
16,CCGATCTA,-0.27
17,ACAGTGGT,-0.173
18,CGAAACGC,-0.00127
19,AGTAGCGG,-0.119
20,GAATGCCA,-0.0431
21,GCGTCAAA,0.151
22,CGGTTACC,-0.114
23,ACACGCGT,0.0501
24,AGTTGCTC,-0.14
25,GCAACGCC,0.0909

row,Sequence,PBM E-score
1,ATATTAAG,0.212
2,AAAACTTT,-0.0281
3,AACGGCCA,-0.0759
4,CACTGGTC,-0.0469
5,AAATGACC,0.102
6,AAACTCAC,0.0463
7,ACGACTGC,-0.216
8,GAGCCACA,-0.108
9,CGCCAAAG,-0.258
10,ATAGATTG,0.14
11,CTGTGCTA,-0.119
12,CTATCGCA,-0.0325
13,GCCTTGTA,0.0465
14,ATGTGACA,0.151
15,CGTAGGTA,-0.108
16,CCCAATCA,-0.0676
17,CAAGTGCG,0.0417
18,CGCAGAAG,0.0478
19,ATACCGGA,-0.0794
20,AGGCCGGG,-0.325
21,AGATCTCC,-0.222
22,GGGTCGAA,-0.256
23,TCGCGCGA,0.169
24,AGAACTAG,-0.143
25,ATTGATCC,0.0874

row,Sequence,PBM E-score
1,TAACGTTA,0.149
2,CGAATACC,-0.16
3,AGATCCAA,-0.0337
4,GAACATGA,0.0785
5,CCGCTTAC,-0.035
6,CGAAATTA,0.192
7,CATCCCGG,-0.262
8,ACCTGTAG,-0.156
9,GTGGCAGA,-0.091
10,ATGTGCCG,0.0266
11,ACAAGAAG,0.184
12,ATAAGAGG,-0.00512
13,ATCGATTG,0.162
14,AACGCCAG,0.00194
15,GCAAGGGC,-0.343
16,CCGGCACC,-0.146
17,CTTATGCC,0.0646
18,CACGCGCG,0.0389
19,TTGCCAAA,0.0215
20,AACCCTGA,0.0815
21,TACAAACA,0.203
22,CATGCCTA,-0.316
23,CCCTCGCC,-0.258
24,CGGTCCAC,-0.285
25,AAGAGCCG,0.0758

row,Sequence,PBM E-score
1,GGGCACGA,-0.114
2,GCCCCGGC,-0.326
3,AGCTACTA,0.0479
4,GACTTATC,-0.151
5,CACTTGAC,0.0552
6,TAGAATGA,0.221
7,ACCAGTCC,-0.426
8,ACTTTTTG,0.142
9,GTACTACA,0.172
10,ATCCCGAG,-0.0445
11,ATTAGGCC,-0.0871
12,GAGGAATA,0.0369
13,CATGTTAA,0.172
14,GCCGCGAC,-0.0175
15,AATCATCG,0.039
16,GGGCGACA,-0.176
17,GTACAGGA,-0.0291
18,ACGCCGTG,0.383
19,ACTGTAAT,0.114
20,ATTCTCAC,0.167
21,CTAGAGCA,-0.136
22,ATCTACTC,0.0449
23,GCTATGCA,-0.0158
24,ATCGGAGG,-0.206
25,ACATGCGG,0.174

row,Sequence,PBM E-score
1,AGTGGAGG,-0.119
2,AGAGACGC,-0.176
3,CGGTTGAA,0.0202
4,TAATATTA,0.391
5,CCTCTCGC,-0.293
6,ATCGCAAT,0.0785
7,CCACATAA,0.0581
8,CGGCGCAA,0.184
9,ACGTCACT,0.495
10,CTCACTTC,-0.243
11,GATTTGGC,-0.102
12,AGCATAGA,-0.0923
13,ATGCCCGA,-0.155
14,CCCATTTA,0.0685
15,CACAAGCC,-0.104
16,CGACGATC,0.0483
17,AACAGTGT,-0.00381
18,CGCGACAA,0.14
19,AGCCACAT,0.123
20,GATACACC,0.104
21,AGGCCGGA,-0.257
22,ACGAACGT,0.0376
23,CATAGACG,0.00338
24,GAAGTCTC,-0.205
25,CGGAAACA,-0.0803

row,Sequence,PBM E-score
1,CGAGGGCC,-0.302
2,AAAGGAGG,-0.177
3,CAATAATC,0.085
4,ATGATCAT,0.198
5,ATGGGGTC,-0.168
6,TGAGGTAA,0.414
7,CGTAAACC,-0.0197
8,CGTCAAGA,0.178
9,TAGACCTA,-0.159
10,CTTCTTTC,-0.195
11,GCGCGAGA,0.0429
12,GCTTAAGC,-0.18
13,CTCGGATA,0.036
14,GCGCTTGA,0.0619
15,ACTGAAGG,-0.174
16,AAACCTGA,0.0656
17,ACGCACGC,0.142
18,CGTAGCCA,-0.0816
19,CAGTGCAG,-0.191
